Test results from the supplement of paper PMC4166925.
± gives the standard deviation of the averaged measurements. Whole data set: some 33,000 sequences, median “E-score (dimensionless, -0.5 to 0.5)” near -0.049, cut for the highest 2% near 0.37. The list shows a part of the results.

Tested on: T1, PmTbr T-box DNA-binding domain (GST fusion)
T1 sequence: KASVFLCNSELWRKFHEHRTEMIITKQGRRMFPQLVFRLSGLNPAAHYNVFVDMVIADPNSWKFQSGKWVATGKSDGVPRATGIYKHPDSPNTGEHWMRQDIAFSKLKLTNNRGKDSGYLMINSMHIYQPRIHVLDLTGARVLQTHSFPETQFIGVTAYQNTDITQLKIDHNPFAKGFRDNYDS
Assay: PBM E-score of 8-mer (E-score (dimensionless, -0.5 to 0.5)); Tbr is Tbrain of the sea star Patiria miniata (Pm) or the sea urchin Strongylocentrotus purpuratus (Sp); higher = stronger binding preference; most listed sequences are background and not binding sites
Settings: the construct has about 5 more residues each side
How it was run: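 Expression of GST-fused Tbr T-box DNA-binding domains, each holding the full T-box plus roughly five flanking residues, was carried out in BL21 E. coli at 20 °C, with purification by glutathione affinity chromatography. Universal Agilent arrays made double-stranded by primer extension were incubated with the protein at 200 nM in PBS (pH 7.5), then scanned and quantified. All ungapped 8-mers were scored from probe intensities, and each received an enrichment E-score from the Universal PBM Analysis Suite, averaged over duplicate arrays.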

Sequence	PBM E-score of 8-mer
GGGTGGAA	-0.0147 ± 0.041
GGTCGTAC	-0.147 ± 0.0024
ACCGCGGT	0.0196 ± 0.13
AGGTAGAT	-0.0828 ± 0.0064
CCCTTCCG	-0.0409 ± 0.022
ATATATCC	-0.138 ± 0.025
CAAGCCCC	-0.0178 ± 0.07
GAGCGGCA	0.0795 ± 0.025
AACCCAAA	-0.157 ± 0.037
ACTAGCTG	0.0188 ± 0.027
CAGTGACA	0.338 ± 0.0041
ATATAAAT	-0.153 ± 0.04
AGTTAGCG	0.307 ± 0.029
CCCGCGAC	0.136 ± 0.015
CACTTAGA	0.182 ± 0.012
GTAACAGA	0.156 ± 0.0055
CGTTACAA	-0.072 ± 0.034
GGAACGCA	-0.19 ± 0.073
GGACTCAA	-0.178 ± 0.043
ATAACGAG	-0.155 ± 0.041
ATTTATCA	0.0516 ± 0.092
AGGCCCGA	-0.111 ± 0.024
CTCGTAAA	-0.077 ± 0.011
CATGTTTC	-0.0333 ± 0.079
TGATTGAA	-0.0306 ± 0.0055

Sequence	PBM E-score of 8-mer
ACGAAAGA	-0.02407 ± 0.00016
ATGACGCG	0.0958 ± 0.023
CTCACTTA	0.3367 ± 0.0027
CGCCCTAG	-0.0901 ± 0.022
AACTGTCC	-0.111 ± 0.023
CACGTGGA	0.158 ± 0.052
TCGCTTAA	0.0866 ± 0.049
TTGAACAA	-0.127 ± 0.035
AAAGTGTA	0.147 ± 0.057
AGACCGTA	-0.193 ± 0.033
CCCGGCAG	-0.133 ± 0.039
CAAGGATC	-0.0471 ± 0.074
ACCTAACG	0.104 ± 0.094
ATCCGTGA	0.105 ± 0.0036
ATCTAAGG	-0.203 ± 0.014
GACCTCGA	-0.0343 ± 0.13
ACTAGATC	-0.298 ± 0.043
ATGCGTGG	-0.0469 ± 0.043
GTGTTCAA	0.0941 ± 0.022
GAGCCAGC	0.0467 ± 0.04
ACCGAGGT	0.145 ± 0.022
CGAATAAC	0.0403 ± 0.031
CCCCCGAC	0.0442 ± 0.00089
CCTCACCG	-0.127 ± 0.05
CTCTCTTA	-0.177 ± 0.066

Sequence	PBM E-score of 8-mer
CGAAGTTA	-0.0444 ± 0.043
AAAGCGGC	-0.193 ± 0.013
ACTTTAAA	-0.00914 ± 0.097
AGACGTGG	-0.0504 ± 0.053
AGTGCTCA	0.00751 ± 0.026
CGATTATA	0.00861 ± 0.057
CAAGCTCA	-0.0245 ± 0.044
AGCGGTGG	-0.224 ± 0.076
AAGTCCTC	-0.149 ± 0.0063
AATCCTGT	0.094 ± 0.033
GAATTCGA	-0.133 ± 0.029
CTTATGAC	0.0992 ± 0.038
AGCATGTA	0.0286 ± 0.013
GCTGAGAA	0.198 ± 0.012
CGTTATTC	-0.0468 ± 0.057
GGGGACCA	-0.291 ± 0.017
AGTGTTCC	0.0364 ± 0.038
CCATGCAC	-0.0379 ± 0.06
GGTATACC	-0.225 ± 0.068
CACCGAGC	-0.0641 ± 0.12
ACTTTTCC	-0.0603 ± 0.078
TGTTGCAA	0.15 ± 0.065
ATAGAGAG	-0.075 ± 0.049
TATGAGCA	-0.242 ± 0.04
CAATTCAC	0.237 ± 0.015

Sequence	PBM E-score of 8-mer
TGAGCACA	-0.0876 ± 0.029
ACGTACCT	-0.0816 ± 0.068
CCTCACGC	0.3174 ± 0.0025
CCCCGACA	0.189 ± 0.032
AATTCCGT	-0.202 ± 0.015
ACGCATGA	-0.111 ± 0.035
CGGTGCAA	0.0869 ± 0.0063
CTCACCAG	0.2021 ± 0.00023
ACCAAGTC	-0.00442 ± 0.087
TGCCGCAA	-0.0959 ± 0.067
TATGAGAA	-0.274 ± 0.048
AGGAACAT	-0.253 ± 0.0039
AGAAACTA	-0.00754 ± 0.026
CTCAGCTA	0.134 ± 0.039
GATCAATA	-0.0796 ± 0.11
CAAGTAGC	0.1943 ± 0.0011
ATAATTCG	0.045 ± 0.11
CGTCCACG	-0.132 ± 0.049
AGCTTTTA	0.000395 ± 0.032
CGGGCTAC	-0.342 ± 0.0098
CTAACTGA	-0.0795 ± 0.084
GCGACGCA	0.0984 ± 0.028
TGTACTAA	-0.054 ± 0.0082
ACCATGGA	-0.075 ± 0.0094
CGTGTCTA	0.0962 ± 0.0027

Sequence	PBM E-score of 8-mer
GCGTGGAC	0.0317 ± 0.021
ACGCGAAC	0.203 ± 0.043
GAAATACA	0.112 ± 0.013
GTGGTCAA	-0.0506 ± 0.018
CGAGATAC	-0.00869 ± 0.012
CTCTGGGA	-0.0144 ± 0.017
AGTCCACC	-0.255 ± 0.047
AGTGGGCA	-0.207 ± 0.015
AAGAAGAG	-0.271 ± 0.045
TTCTAGAA	0.0424 ± 0.095
ACAACTGG	0.165 ± 0.013
ACGGGTCC	-0.0144 ± 0.012
ATTACCAG	-0.194 ± 0.038
ACATCTCA	0.00973 ± 0.005
ATAAGACG	-0.0327 ± 0.018
ACCGCGCG	0.096 ± 0.0033
TATCCTGA	-0.124 ± 0.038
CGTGACTC	0.0879 ± 0.021
GATATCCA	0.0568 ± 0.0081
ATCAAAAA	-0.192 ± 0.023
CGTCACAC	0.433 ± 0.017
CCCTCCAC	-0.0702 ± 0.038
CAGCAGGG	-0.211 ± 0.11
AACATTAG	-0.0332 ± 0.0063
TACAAAAA	-0.21 ± 0.072

Sequence	PBM E-score of 8-mer
GCACAGGC	-0.0764 ± 0.0017
CAGACGGC	-0.201 ± 0.055
AGCAGGCG	0.1 ± 0.031
CGGGCCGC	-0.226 ± 0.025
GACGTTGA	-0.077 ± 0.015
CATTTACC	0.036 ± 0.032
CGTTTCAG	0.0162 ± 0.026
AGCATGAG	-0.117 ± 0.07
CACAGTCA	0.118 ± 0.033
ACGTACCC	-0.00781 ± 0.019
AATATGTG	0.239 ± 0.023
CGTCAAAG	0.196 ± 0.044
CCTTATAA	-0.082 ± 0.039
GTGTGGGA	0.343 ± 0.02
CATTCATC	-0.0785 ± 0.059
CGAAAACG	0.109 ± 0.14
TCAGCGGA	-0.256 ± 0.03
CGGATGGA	-0.227 ± 0.12
GCCTTATA	-0.0457 ± 0.036
AATGATCT	-0.0617 ± 0.0091
AGCATACC	-0.0981 ± 0.025
CCAAAAGC	-0.118 ± 0.065
CAGGCATC	-0.213 ± 0.048
AGGATTAT	0.056 ± 0.13
ATCGAACC	-0.292 ± 0.071

Sequence	PBM E-score of 8-mer
ACAACTCG	0.249 ± 0.01
ACAGTACC	-0.0912 ± 0.0061
AACCGCGC	-0.0685 ± 0.025
GAAGTTCA	-0.131 ± 0.0092
AACCAGGT	0.135 ± 0.029
ACTTTCGC	0.3198 ± 0.0023
AGGGCCGC	-0.214 ± 0.079
AGGTGGAG	0.141 ± 0.0032
CGATGCGA	0.183 ± 0.048
GAAACAAA	-0.0528 ± 0.14
CTAGCTAG	0.117 ± 0.11
AGACGACC	-0.0508 ± 0.043
AGCGACCT	-0.012 ± 0.048
GCTAGTCC	0.0125 ± 0.013
AATTCTCA	0.266 ± 0.049
AAAGAAAG	-0.153 ± 0.024
AATAGCAT	0.0415 ± 0.015
AGCTCTGA	-0.173 ± 0.028
CCGGTTGA	-0.165 ± 0.038
ATCGTGGC	-0.0809 ± 0.0066
GGGGATTA	0.000805 ± 0.048
TGCAAAAA	0.0937 ± 0.048
